Laboratory results as given in PubChem BioAssay AID1460 (National Center for Advancing Translational Sciences (NCATS), 2008).
The whole screen tested about 270,000 compounds, of which about 5,800 (2.1%) were called active. This list was built around the results that the source calls inconclusive (neither active nor inactive); the mix of calls is not that of the screen. Calls come from the whole dose curve; as a rule, active = well fitted inhibition curve with a large enough effect; inconclusive = small, poorly fitted or top-dose-only effect; inactive = flat fitted curve, though single readings scatter. A potency beside an inconclusive call is a rough fit, not a confirmed value.

The compounds below were run against Microtubule-associated protein tau (Homo sapiens) (UniProt P10636) (assay: qHTS for Inhibitors of Tau Fibril Formation, Thioflavin T Binding). Details: recombinant tau K18 P301L, heparin-induced fibrillization, ThT fluorescence; series mostly up to 57.4 µM; activity, negative = inhibition: at the top concentration.
Procedure, shortened: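 ThT emission at 510 nm, taken 1 hr after adding 30 uM dye, quantifies aggregates formed when 20 uM heparin acts on human tau K18 P301L for 6 hr at 37 C.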
% is set by controls: 0 for no effect and ±100 for the full control effect; potency is the fitted concentration of half-maximal effect; tags give direction and shape of the fitted curve.
Note: nearly all actives have a fitted effect of over 55% in size.

Sequence of UniProt P10636 (P10636 whole entry, looked up): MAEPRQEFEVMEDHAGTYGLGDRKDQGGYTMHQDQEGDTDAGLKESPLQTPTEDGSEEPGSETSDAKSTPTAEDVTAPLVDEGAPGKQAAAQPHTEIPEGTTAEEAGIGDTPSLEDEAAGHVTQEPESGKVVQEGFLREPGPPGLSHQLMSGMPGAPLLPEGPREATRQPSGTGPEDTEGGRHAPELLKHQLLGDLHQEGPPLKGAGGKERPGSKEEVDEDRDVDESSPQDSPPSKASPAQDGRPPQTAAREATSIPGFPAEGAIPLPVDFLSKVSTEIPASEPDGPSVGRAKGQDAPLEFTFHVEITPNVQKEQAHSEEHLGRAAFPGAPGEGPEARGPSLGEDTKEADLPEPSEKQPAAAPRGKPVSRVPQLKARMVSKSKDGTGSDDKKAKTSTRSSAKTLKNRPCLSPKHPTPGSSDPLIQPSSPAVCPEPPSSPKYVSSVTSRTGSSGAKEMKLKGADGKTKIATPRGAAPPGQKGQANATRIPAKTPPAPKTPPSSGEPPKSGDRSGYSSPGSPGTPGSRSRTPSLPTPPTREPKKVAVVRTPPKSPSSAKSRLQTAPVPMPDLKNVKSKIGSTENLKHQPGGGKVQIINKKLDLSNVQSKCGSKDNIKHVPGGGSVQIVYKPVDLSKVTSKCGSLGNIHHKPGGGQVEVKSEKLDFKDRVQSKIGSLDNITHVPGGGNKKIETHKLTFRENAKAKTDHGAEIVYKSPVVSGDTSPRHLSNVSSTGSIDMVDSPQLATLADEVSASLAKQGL

| SMILES | Potency | activity, negative = inhibition |
| --- | --- | --- |
| Cc1ccc2nc(-c3ccccn3)c(Nc3ccc(F)cc3)n2c1 | inconclusive: 25.1 µM [inhibitor, partial curve, poor fit] |  |
| Cc1ccc2nc(NC(=S)NC(=O)c3ccc(OC(C)C)cc3)sc2c1 | inconclusive: 28.2 µM [inhibitor, partial curve] |  |
| O=C(Cc1ccc(F)cc1)N1CCC(c2nc3c(nnn3Cc3ccc(Cl)cc3)c(=O)[nH]2)CC1 |  | inactive: -8.66% |
| COc1ccccc1S(=O)(=O)Cc1ccc(C(=O)N2CCN(c3ccc(C)cc3)C(C)C2)o1 (stereo not drawn) | inconclusive: 22.4 µM [inhibitor, partial curve] |  |
| COc1ccc(-c2noc(C3CC(=O)N(c4cc(C)cc(C)c4)C3)n2)cc1 (stereo not drawn) | inconclusive: 39.8 µM [inhibitor, single point] |  |
| CC(C)(C)N1C(=O)[C@@H]2[C@H]3C(=CC[C@H]2C1=O)C(=O)[C@H]1O[C@H]1[C@H]3O | inconclusive: 3.16 µM [inhibitor, partial curve] |  |
| COc1ccc(N2CCN(C(c3cc4cc(C)ccc4[nH]c3=O)c3nnnn3Cc3ccccc3)CC2)cc1 (stereo not drawn) | inconclusive: 17.8 µM [inhibitor, partial curve, poor fit] |  |
| Cc1cccc(CNC(=O)c2cnc3sc(N4CCCCC4)nn3c2=O)c1 | inconclusive: 10 µM [activator, single point] |  |
| CCOC(=O)c1c(C)c(C(=O)NCCc2ccc(OC)cc2)c(C)n1C |  | inactive: -5.68% |
| C=CCNC(=S)NNc1nc2c(c(=O)[nH]1)C1(CCCCC1)Cc1ccccc1-2 |  | inactive: -6.45% |
| Cc1[nH]c2ccccc2c1N=Nc1cc(C(=O)O)cc(C(=O)O)c1 | inconclusive: 28.2 µM [inhibitor, partial curve] |  |
| COc1ccc(NC(=O)c2cc(SC)ccc2Cl)cc1 | inconclusive: 17.8 µM [inhibitor, partial curve] |  |
| CCC(=O)NCCCNc1nc2c(C)cccc2cc1C#N |  | inactive: 0.669% |
| CN1C(=O)CSc2ccc(NC(=O)N3CCN(c4ccccc4)CC3)cc21 | inconclusive: 31.6 µM [inhibitor, partial curve] |  |
| O=C(c1ccc2c(Cl)c3c(nc2c1)CCCC3)N1CCN(c2ccccc2)CC1 | inconclusive: 14.1 µM [inhibitor, partial curve] |  |
| COc1ccccc1NC(=O)N(Cc1ccco1)Cc1cc2c(C)ccc(C)c2[nH]c1=O | inconclusive: 28.2 µM [inhibitor, single point] |  |
| CCCc1nnc(NC(=O)c2nc(S(=O)(=O)Cc3ccc(C)cc3)ncc2Cl)s1 | inconclusive: 3.55 µM [inhibitor, full curve] |  |
| CC(C)(C)C1CCc2onc(C(=O)Nc3sc4c(c3C(N)=O)CCCC4)c2C1 (stereo not drawn) | inconclusive: 31.6 µM [inhibitor, single point] |  |
| N/C(Cc1ccc([N+](=O)[O-])cc1)=N\OC(=O)COc1ccccc1Cl | inconclusive: 22.4 µM [inhibitor, partial curve] |  |
| O=C(O)c1ccc2[nH]c3c(c2c1)CSCC3 | inconclusive: 11.2 µM [inhibitor, partial curve] |  |
| O=C(Nc1ccc2c(c1)OCO2)Nc1ccc(Cl)cc1Cl | inconclusive: 2.24 µM [inhibitor, full curve] |  |
| C=CCn1c(Cc2cccs2)nnc1SCC(=O)c1ccc2ccccc2c1 | inconclusive: 22.4 µM [inhibitor, partial curve] |  |

| SMILES | Potency | activity, negative = inhibition |
| --- | --- | --- |
| O=c1cc(N2CCCCC2)c(-c2ccccc2)nn1Cc1ccccc1 | inconclusive: 25.1 µM [inhibitor, single point] |  |
| Cc1cc(/C=C2\NC(=O)NC2=O)c(C)n1-c1ccc(N2CCOCC2)cc1 | inconclusive: 15.8 µM [inhibitor, partial curve] |  |
| COc1cc(OC)c2c(-c3ccccc3)cc(=O)oc2c1C(CCN1CCCC(C)C1)c1ccc(N(C)C)cc1 (stereo not drawn) | inconclusive: 31.6 µM [inhibitor, single point] |  |
| Cc1ccc(C)c(N2CCN(C(=O)CN3C(=O)CSc4c3c(C)nn4-c3ccccc3)CC2)c1 |  | inactive: -6.42% |
| CC(=O)c1c(O)c(C)c(O)c2c1OC1=CC(=O)C(C(C)=O)C(=O)[C@@]12C (stereo partly drawn) |  | inactive: 10.2% |
| NC(=O)CSc1cn(Cc2ccccc2)c2ccccc12 |  | inactive: -2.38% |
| O=C(Nc1ccc(F)c(F)c1)C1CCCN(S(=O)(=O)c2cccc3nonc23)C1 (stereo not drawn) |  | inactive: 8.41% |
| CCN(CC)c1ccc(NC(=O)c2cccc(OC)c2)c(C)c1 | inconclusive: 20 µM [inhibitor, partial curve] |  |
| Cn1c(=O)n(C)c2cc(S(=O)(=O)Nc3ccccc3C(=O)O)ccc21 |  | inactive: 6.34% |
| CCN1C/C(=C/c2ccc(N3CCOCC3)cc2)C(=O)/C(=C/c2ccc(N3CCOCC3)cc2)C1 | active: 0.631 µM |  |
| COc1cc(OC)cc(C(=O)NC(=S)Nc2cc3oc4ccccc4c3cc2OC)c1 | inconclusive: 5.62 µM [inhibitor, partial curve, poor fit] |  |
| CN(C(=O)CSc1nnc2[nH]c(=O)cc(-c3ccccc3)n12)c1ccccc1 |  | inactive: -16.4% |
| Fc1c(F)c(F)c(CSc2nc3ccccc3[nH]2)c(F)c1F |  | inactive: -5.3% |
| COCCNC(=O)/C(C#N)=C/c1ccc(OCc2ccccc2)cc1 | inconclusive: 3.55 µM [inhibitor, full curve, poor fit] |  |
| Cc1cc(C)n2cc(CSc3nc4ccccc4[nH]3)nc2n1 | inconclusive: 12.6 µM [inhibitor, partial curve, poor fit] |  |
| O=C(COc1ccccc1)Nc1sc2c(c1C(=O)NCc1cccnc1)CCCC2 |  | inactive: -16.4% |
| COc1cc2cc(C(=O)O)n(C)c2c(OC)c1OC |  | inactive: -10.5% |
| C=C(C)CSc1nnc(-c2ccc(OC)c(OC)c2)n1N | inconclusive: 28.2 µM [inhibitor, partial curve, poor fit] |  |
| CSc1nc(Sc2ccccc2)c2ccccc2n1 | inconclusive: 28.2 µM [inhibitor, partial curve] |  |
| CCC(Sc1nncn2c1cc1sccc12)C(=O)Nc1cccc(OC)c1 (stereo not drawn) | inconclusive: 25.1 µM [inhibitor, single point] |  |
| Cc1cccc(NC(=O)C2CCCN(S(=O)(=O)c3c(C)noc3/C=C/N(C)C)C2)c1C (stereo not drawn) | inconclusive: 35.5 µM [inhibitor, single point] |  |
